Some of the results follow.
Test system: PfHDP1 homeodomain (GST-tagged)
Assay: gcPBM binding intensity (ln(normalized median fluorescence intensity)); higher = stronger DNA binding
In short: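 An Agilent 4 × 180k array carrying primer-extended double-stranded 36-bp intergenic genomic probes and negative controls received GST-tagged P. falciparum DNA-binding domains expressed in E. coli, about 25 μg on average, for 1 h. The binding buffer contained 1× PBS, 1% milk, 0.2 mg/ml BSA, 0.5% salmon testes DNA and 0.03% Triton X-100. Binding intensity is the top Masliner-normalised natural-log median intensity across replicate spots of either probe orientation, read after Alexa488 anti-GST antibody staining and a 488 nm scan.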

| Sequence | gcPBM binding intensity (ln) |
| --- | --- |
| TGTATATCATATATTTGTACTCAATTAATATAAACA [XGTACX_site3970] | 6.4 |
| TATTTTTATACAATTTAACACGGGTTATAAAATGTA [CACACA_negctrl_site566] | 6.51 |
| TATGGAAGAAAATATACACACAAAAAAAAAAAATGT [CACACA_site1486] | 6.58 |
| ATACTTTTATTTTTGGTGCATATATCATGTAGACGT | 10 |
| AATTTATTATTTGTATGTACTCATATGATTCACTTA [XGTACX_site2797] | 6.26 |
| AAAATCAAGTAGTATAAAGTAAGTATCATAAAAATA [CACACA_negctrl_site1554] | 6.43 |
| GTACACTAATTATGTGCACACAAATTAAAGGTCTAC [CACACA_site146] | 11 |
| ATAATAAAATGGAGAGTGCATACATGTTTATTTTAT | 7.7 |
| AAAAAAAATTAGGAAACATGCATGTCCCGATAAATA [TGCATGCA_site149] | 6.5 |
| AGATATATTATTAGGTGTACTATAAAATAAATTCAC [XGTACX_site221] | 6.42 |
| CGAACAAACAAATAAACACACAAAAAAAGATATATA [CACACA_site6944] | 6.75 |
| GTGTGTTGTATATACTGTACATACTTTATATATAGT [XGTACX_site1876] | 7.09 |
| TATAACAAGTAATGTTGTACATTGTATTATGTAATA [XGTACX_site6372] | 6.29 |
| AAATGTGTTTATTTAACACACAAAAGAAAAAATATA [CACACA_site6993] | 6.7 |
| AATGTAAAATATATGTGTACATATGTTTATATATAT [XGTACX_site2216] | 6.81 |
| CAATCAAAGAAACACACACACACCTAAACATAAAAG [CACACA_site2756] | 6.97 |
| TTAACGTAAAATATAGTGCATAGTATCATATTGATA [GTGCAC_site9527] | 8.1 |
| TGTAGTTTGTCCCATGCATGTTCCATTAAAATATAT [TGCATGCA_site854] | 7.57 |
| AATGTATATATGTAATGTACATATATAATGTATATA [XGTACX_site6510] | 6.6 |
| TTACTCATGAAAGATACACACATTCATTATATATAT [CACACA_site3252] | 6.7 |
| TATATAAACCCGTACACACACATATATGTATATATA [CACACA_site3507] | 7 |
| AAATTTACAATACATTGTACATATTAATAATATTCC [XGTACX_site3646] | 6.26 |
| AATAAAAATTTACTTTGTACACATATTAAATTCAAT [XGTACX_site1957] | 6.24 |

| Sequence | gcPBM binding intensity (ln) |
| --- | --- |
| TACTTCTACAAGAGAAGTACAATATTTTTTATATTA [XGTACX_site8351] | 5.76 |
| AGACATAAGATAATTACACACAATACATCCCTATAT [CACACA_site2227] | 6.82 |
| TAAAATTAGGAAATTGCACACAAAAAAAAACATATT [CACACA_site9349] | 9.48 |
| ATAAAGCCATACAATACACACATTTTACATGGCTGT [CACACA_site5756] | 6.49 |
| TTTGTTATATTTAATACACACATATTATAAACCCAT [CACACA_site3716] | 7.19 |
| AAAAAAAAAAGACACACACACAAATACAAATGGTAA [CACACA_site6906] | 6.64 |
| TATAAATAAATTTATACACACACACCCATATATATA [CACACA_site8183] | 7 |
| TACCAAAATAGACACACACACAAAATATGTAAATAT [CACACA_site6963] | 6.74 |
| TATATTTTAGTTAATGCATGTGTGCATCCATTTAAA [TGCATGCA_site887] | 9.01 |
| ATACATATATATATATGTACACACATTAATAAAAAA [XGTACX_site6874] | 6.83 |
| ATATATACATTTCTATGTACATATGTATATATGTAT [XGTACX_site1522] | 6.54 |
| ATAAAAGAAAACAATAGTACTTTAGTTTTTCTTTTT [XGTACX_site5686] | 6.14 |
| TTAATCTAGAGAAATTGTACATTTTATTAACACAAT [XGTACX_site1190] | 5.97 |
| AAATAACTCATGGGTTGTACTTAAAAAAAAAAAGAT [XGTACX_site4168] | 6.76 |
| ATTTTTTTTTTTTGTTTTTTCTTACAAATTAAATGA [CACACA_negctrl_site1457] | 6.39 |
| AAACCTTTAGAAAATCGTACAAAACATAACCACCTA [XGTACX_site1098] | 6.7 |
| CTCTTGTCATTTTGCACACACACATGGATAGGTTAT [CACACA_site5655] | 10.8 |
| TTTTTTTTTTTTCACGTGCACTATACATATAAGTAA | 8.41 |
| AACACATACAGACACACACACAAAAAAAAAAAAAAA [CACACA_site6322] | 6.74 |
| ACCCAATTTTTTAGTACACACATATAAATATATAAA [CACACA_site4944] | 6.86 |
| TAAAACATGTTTTTATATATTATTATTATATTTATA [XGTACX_negctrl_site8] | 6.1 |
| TATATTTGGAAACACACACACAAAAAAAAAAAAAAA [CACACA_site2474] | 6.51 |
